# Measured values: the supplement of paper PMC11417369
# ± gives the standard deviation of the averaged measurements. The list shows a part of the results.
# System: PfAP2-I AP2 domain 3 (GST-tagged)
# Assay: gcPBM binding intensity (ln(normalized median fluorescence intensity)); higher = stronger DNA binding
# Summary of the method: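 DNA-binding domains from P. falciparum, fused to GST and produced in E. coli, were put on an Agilent 4 × 180k double-stranded probe array for 1 h in 1× PBS holding 1% milk, 0.2 mg/ml BSA, 0.5% salmon testes DNA and 0.03% Triton X-100. Probes were primer-extended, 36 bp long and drawn from intergenic genomic regions, with negative controls included. After Alexa488 anti-GST antibody detection and a 488 nm scan, binding intensity was set as the highest Masliner-normalised natural-log median intensity across replicate spots of either probe orientation.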
row,Sequence,gcPBM binding intensity (ln)
1,CTAGCAAATACATACACACACACACCCATACATATA [CACACA_site3496],8.07 ± 0.38
2,ACAACAATATGGAATTGTACATATATATATAAATAT [XGTACX_site3139],7.75 ± 0.46
3,GAACAAATAAAAAGGAGTACAATCAAATCTACGTAT [XGTACX_site343],8.06 ± 0.26
4,TACACAAAACATAAAAGTACATAATAATAAAGTTAA [XGTACX_site8872],7.74 ± 0.61
5,AGGAATAAATAATTAACACACACAATCTTTTTTTTT [CACACA_site9027],7.6 ± 0.54
6,TAATAAGTATAAAATAGTACATATAAATATATCAAA [XGTACX_site8834],7.67 ± 0.5
7,AAATAAAAAAACTATTGTACTGAATACAAATTAAAT [XGTACX_site3793],7.53 ± 0.41
8,ATAATATTAGTAAACACACTCAAATTATATATGATA [CACACA_site5721],7.54 ± 0.49
9,ACTTTTTCACATAAAAATGATCCGATTAGTAATAAT [XGTACX_negctrl_site248],7.76 ± 0.62
10,AGTATACATTCATTTTGTACTCAATGATTTGATAAC [XGTACX_site6787],7.63 ± 0.42
11,ATAATTATATTCCATACACACATATATTTAAAGGTT [CACACA_site2957],7.95 ± 0.54
12,CATTTTTTAAGCATCACACACGAAAGAACAAAGTGG [CACACA_site4755],8.21 ± 0.53
13,TGGAAAATTATAAGGTGTACATATAAGCTATTATAT [XGTACX_site118],7.76 ± 0.47
14,TTTTTTTTTTTAAGGTGTACAATAAAAATTTATGCA [XGTACX_site8860],8.39 ± 0.49
15,CATATATAAAATATATGTACTTATAGAACATAATTT [XGTACX_site1936],7.3 ± 0.35
16,TGGTGTTTTTTTTAATGTACTTATAAAATAATACAT [XGTACX_site6574],8 ± 0.45
17,TTTTTTTTACATGAACGTACATAATATATTTTATAA [XGTACX_site5249],7.95 ± 0.33
18,ATGTAAAAATAAAGATGTACATGTATATATATATAT [XGTACX_site5193],9.18 ± 0.55
19,CCTATAATTAGGGGTAGTACACAAAAAAAAAAAAAA [XGTACX_site6396],8.15 ± 0.3
20,AATATATATTCATGTGTACACACAAAAAAAAATAAA [CACACA_site8690],8.445 ± 0.007
21,AATTCCTTATACAATTGTACATAAAAAGAATAAAAA [XGTACX_site1343],8.06 ± 0.25
22,TTAAAAAAGAATTGTGCACACACAAAAAATGTTCAT [CACACA_site1102],10.3 ± 0.14

row,Sequence,gcPBM binding intensity (ln)
1,ATCAAACAAAAAATAAAAAAATGCGACATGTGTACA [TGCATGCA_negctrl_site164],7.83 ± 0.64
2,CAAGGACAATTTACAAACATAATATATGTATATATA [TGCATGCA_negctrl_site5],7.34 ± 0.35
3,TTGAATACATATATATGTACATATTCTATGGTTAGA [XGTACX_site4088],7.57 ± 0.4
4,TTAATATTTTTAATTTGTACATATAATTAAATCTCT [XGTACX_site1736],7.68 ± 0.49
5,GAAAATTATGTATATTGTACAAATATTATATTAAAT [XGTACX_site2467],7.75 ± 0.5
6,TATAAAATTTAAATTATACACACTTAAGTAACATCA [CACACA_site531],7.82 ± 0.54
7,CTGAGGAAGCTAATTACACACATGCATATTTTTTTT [CACACA_site2177],8.16 ± 0.86
8,ATTATCTTCAAGTATGTACACACTATATATAATAAA [CACACA_site2441],8.06 ± 0.36
9,AAATTATAATTAGGAACACACATATATATATATATA [CACACA_site3098],9.34 ± 0.25
10,TACATGTATAATATAATACACACTATATAATATACA [CACACA_site2239],7.8 ± 0.35
11,TACATACATACATACATACACACATATATATATATA [CACACA_site1996],9.485 ± 0.021
12,AAAAAGAAGATGCAAACATGCACACAGAAAAAAAAA [TGCATGCA_site375],8.38 ± 0.82
13,CTATTATAAAAATGATGTACACTTATATATACATAT [XGTACX_site6087],7.78 ± 0.45
14,TTTTTTTTTTGAATATGTACTTAAAAAAATTTTTTT [XGTACX_site3851],7.89 ± 0.45
15,TTTTCATTCCACAACGCACACCCATTTAAAAAAAAA [CACACA_site1377],9.52 ± 0.28
16,TAATTTTTTTTTTTTTTTTTTTTTTTTTTTTTTTTA [CACACA_negctrl_site1218],7.49 ± 0.3
17,AAAAAAAAAAAAATTACACACATACAGATAATAATA [CACACA_site5244],7.71 ± 0.21
18,ATAACATGAACATATGTTACACAAACATACATACAT [XGTACX_negctrl_site365],8.27 ± 0.92
19,AAAAAATATTTTAGTGGTACATTTGTAGCTCTCAAA [XGTACX_site4859],7.74 ± 0.47
20,AATCAAATATTTAAATGTACTCAAGAAGGCTTAATC [XGTACX_site6907],7.69 ± 0.52
21,GAAAAAAAAAAAAAAAAACACACGGTACATTCAAAG [CACACA_site303],7.63 ± 0.79
22,AAAAATATAATATAATGTACACAAAAAAAAAAAATC [XGTACX_site1427],7.93 ± 0.52

row,Sequence,gcPBM binding intensity (ln)
1,TATGAAGACACAAATACACACACTCAAAAAAAAAAA [CACACA_site2660],8.05 ± 0.78
2,TTTATTTATAGAATTACACACATATATACACAAATG [CACACA_site7338],7.99 ± 0.43
3,TTTATTTTTAAAGGCACACACATTTTTATTTTTAAA [CACACA_site2021],8.715 ± 0.021
4,TTCTTTTTTTTCAGTTGTACTTATAAGAAAGAAAAA [XGTACX_site4028],7.84 ± 0.16
5,AATATAAATATAGGAAATGTAGTTAAAAGGTGTATG [CACACA_negctrl_site1233],7.71 ± 0.74
6,ATATATATAACAAAAGTGCATTAAGGGGATGCTATA,11.5 ± 0.26
7,TTATTATAAATAGGTAGTACATTTTGAACAAATATT [XGTACX_site8866],7.77 ± 0.34
8,TATGCAAGGAACCACACACACACACGGAAATGTATA [CACACA_site6490],8.07 ± 0.73
9,AATTATGGGGAAAAGACACACATATATATATATATA [CACACA_site2589],9.43 ± 0.38
10,ATACGACAAATATAAAGTACAAGCTTGGTTTTTATA [XGTACX_site8103],7.62 ± 0.43
11,ATTCTATAGAAACACACACACATGCATGCACCTATA [CACACA_site107],9.28 ± 0.29
12,TTATATATATATGTATGTACTTATAACTTTTATTAG [XGTACX_site3190],7.66 ± 0.59
13,ATAAGGTTACAACAAACACACAAAGGAATATACGCA [CACACA_site4090],7.91 ± 0.91
14,AAGAAGAATAGGCGTTGTACGGAATGTAGTAGAGTT [XGTACX_site2430],8.4 ± 0.91
15,TTAATATAAATATGATTTTTGATTCCTATACTATTT [CACACA_negctrl_site752],7.38 ± 0.52
16,TTGTATTCATATGGTTGTACATATTAAAAGTTCTAA [XGTACX_site7255],7.73 ± 0.31
17,ATAAATTTACTTGATTGTACATTTCTTAGTTGTATT [XGTACX_site3057],7.61 ± 0.54
18,CACAAGAAAGTTCACACACACACATATATATATATA [CACACA_site6009],9.68 ± 0.48
19,TATACTGATAAAAAAAGTACTAGAGTTTGTAAAAAT [XGTACX_site3934],7.93 ± 0.72
20,AATTTTAATTTTTTGACACACATATAATATATATAT [CACACA_site3978],8.85 ± 0.11
21,TTATATGTCAATTTGCGTACATACATAATTACATAT [XGTACX_site1546],8.11 ± 0.12
22,TATGGGTATGTATTCACACATAACAAAAATATCAAA [CACACA_site5059],7.79 ± 0.67

row,Sequence,gcPBM binding intensity (ln)
1,ATATATATATATAACACACGCAAAAAAATTAAATAA [CACACA_site1400],9.31 ± 0.22
2,CAAAGACACAAACACACACACACATACATACATACA [CACACA_site453],8.85 ± 0.59
3,TTTTATATATTCAATTGTACATGTATTTTTTTTTTT [XGTACX_site3584],7.76 ± 0.46
4,TATGCATTTATGCATTGTACTTTTATAGATTCCACC [XGTACX_site7121],7.84 ± 0.19
5,AACAATATGGATGTATGTACACATATAGAACGTTAT [XGTACX_site7142],7.91 ± 0.72
6,TATGTATATATATTAACACACAAAAAAAAAAAAAAA [CACACA_site1812],7.95 ± 0.62
7,ATGAACGGAAAAATATATATAAATATATATATCATG [XGTACX_negctrl_site342],7.61 ± 0.33
8,TTAAACTATACCAAAACACACATACAAAATATAAAA [CACACA_site5494],7.84 ± 0.6
9,GAAATTTTATTACTTTTACACACCTATATATTATTC [CACACA_site9076],7.79 ± 0.76
10,ATATTATATATACACGCACACACACTAATATATATA [CACACA_site9092],8.55 ± 0.59
11,TACAAAAAAAAAGAACGTACAAAAAATTTCAAAAAT [XGTACX_site5860],7.96 ± 0.49
12,TAAAATAACTCACAAAGTACAAAAATAAGCATATGA [XGTACX_site7046],7.76 ± 0.69
13,TACATGATAGATCACACACACATATAAATATATATA [CACACA_site5562],7.93 ± 0.64
14,ACATAAGACACAAATACACACAAAAATATATAACAA [CACACA_site4082],8.12 ± 0.28
15,AAAATATATTAAGGCACACACATACAGATATATATA [CACACA_site5951],10 ± 0.48
16,TACGTGAAATTATATACACACATAAATATGGGTGTA [CACACA_site5687],7.39 ± 0.28
17,TACATACACAAATACACACACAAATACATACCCAAA [CACACA_site4550],8.05 ± 0.38
18,TTTTTTCTTTTTTTTTTTTTTTTCTTTTTTTTTTTT [GTGCAC_negctrl_site196],7.94 ± 0.48
19,GGTATACTCAAGTATACACACATATATATATATATA [CACACA_site5746],9.5 ± 0.58
20,AAGAAAATGTATATATGTACATACAATCAAAAGAAG [XGTACX_site3454],8.14 ± 0.38
21,GAATATTCAACATAATGTACAAGTATTCATTTCTTT [XGTACX_site7860],7.55 ± 0.49
22,TAATAAACTTAAAAATGTACATATATTTATTATTAC [XGTACX_site4321],7.49 ± 0.45
